Measurements taken from publication PMC6919601, “Identification of Plasmodium dipeptidyl aminopeptidase allosteric inhibitors by high throughput screening” (PLoS ONE, 2019).
Where “and” joins values, the source holds several entries; their conditions need not be identical. Identical values can stand only once. Hit rate of the full screen: of about 110,000 compounds, about 230 (0.21%) showed an effect of 50% or more. The list shows a part of the results.

The compounds below were run against DPAP1 (Plasmodium falciparum, UniProt Q8IIJ9) (assay: primary screen, percent inhibition; read by cleavage of a fluorogenic dipeptide substrate; higher = more effect of the substance).
Parameters: species or system P. falciparum D10 trophozoite lysates; single well
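Note: 30 min substrate incubation versus DMSO and 10 µM JCP410 controls.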

Chain of DPAP1 (Q8IIJ9 whole entry, looked up): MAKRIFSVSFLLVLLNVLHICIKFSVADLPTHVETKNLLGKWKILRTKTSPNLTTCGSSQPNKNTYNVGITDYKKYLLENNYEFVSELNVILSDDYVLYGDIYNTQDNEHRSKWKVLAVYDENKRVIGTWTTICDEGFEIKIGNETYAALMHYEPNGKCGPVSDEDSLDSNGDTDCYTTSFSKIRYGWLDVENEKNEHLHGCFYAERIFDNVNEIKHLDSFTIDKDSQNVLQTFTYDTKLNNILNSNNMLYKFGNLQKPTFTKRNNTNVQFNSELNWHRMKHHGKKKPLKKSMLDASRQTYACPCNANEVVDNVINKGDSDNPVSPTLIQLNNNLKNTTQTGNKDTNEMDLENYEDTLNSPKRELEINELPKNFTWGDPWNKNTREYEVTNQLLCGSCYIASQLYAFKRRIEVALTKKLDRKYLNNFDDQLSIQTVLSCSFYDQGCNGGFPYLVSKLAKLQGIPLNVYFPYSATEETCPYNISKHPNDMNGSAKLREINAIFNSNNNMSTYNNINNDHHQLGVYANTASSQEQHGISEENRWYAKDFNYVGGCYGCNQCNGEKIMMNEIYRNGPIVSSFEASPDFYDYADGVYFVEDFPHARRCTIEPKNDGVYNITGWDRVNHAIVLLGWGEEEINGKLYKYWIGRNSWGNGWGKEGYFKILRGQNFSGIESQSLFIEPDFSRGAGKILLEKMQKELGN

Row | SMILES | % Inhibition @ 10 uM
1 | CC(C)CC(=O)Nc1nn2c(-c3ccco3)nnc2s1 | -6.36%
2 | CCOC(=O)c1cnc2c(-c3ccccc3)cnn2c1N | -5.53%
3 | CN1/C(=C/C(=O)c2ccco2)C(C)(C)c2ccccc21 | 1.87%
4 | O=C(Nc1ccccc1)Nc1ccc2c(c1)C(=O)c1ccccc1-2 | 2.58%
5 | c1ccc2c(c1)CCC(NCCN1CCCCC1)C2 (centres unmarked) | -1.5%
6 | CC(=O)c1cccc(-n2cccc2)c1 | 1.2%
7 | COc1ccc(-c2nccnn2)cc1 | 2.21%
8 | O=C(Cc1noc2ccccc12)NCc1cccnc1 | -3.49%
9 | O=C(NCc1ccccc1)c1cc(-c2cccs2)on1 | -2.55%
10 | CCOC(=O)N1CCN(CC(O)COc2ccc(C)cc2C(C)(C)C)CC1 (centres unmarked) | 0.291%
11 | CCn1c(=O)c(C(=O)Nc2ccc(F)cc2)c(O)c2ccccc21 | 0.909%
12 | Cc1ccc(CS(=O)(=O)Cc2ccc(C(=O)NC(C)c3ccccc3)o2)cc1 (centres unmarked) | 2.18%
13 | Cc1ccc(N2C(=O)C(Cl)=C(N3CCOCC3)C2=O)c(C)c1 | -1.64%
14 | O=C(Nc1ccc(F)cc1F)c1ccc(Cn2cc(Br)cn2)cc1 | 0.907% and 4.08%
15 | CC1CCc2c(sc3ncnc(Cl)c23)C1 (centres unmarked) | -4.93%
16 | CC(Nc1nc(-c2ccccc2)nc2ccccc12)c1ccccc1 (centres unmarked) | 5.37%
17 | CCCS(=O)(=O)c1ncc(Cl)c(C(=O)Nc2nnc(SCc3ccccc3C)s2)n1 | 3.77%
18 | COc1cc(CNc2ccc(N3CCN(C(C)=O)CC3)cc2)ccc1OCc1ccccc1 | 0.727%
19 | CCNC(=O)c1cc2c(=O)n3cc(C)ccc3nc2n(CC)c1=N | 1.97%
20 | COc1ccc(C2C(C#N)=C(N)Oc3[nH]nc(C)c32)cc1OCc1ccc(Cl)cc1 (centres unmarked) | -2.64%
21 | CCCOc1cc(/C=C(/C#N)C(N)=S)ccc1OC | 0.777%
22 | Cc1ccc(S(=O)(=O)N(CC(=O)Nc2ccc3c(c2)OCO3)c2ccccc2)cc1 | 5.85%
23 | COCC(=O)Nc1nc2nc(C)c(Cc3ccccc3)c(O)n2n1 | -3.08%
24 | O=C(CCN1C(=O)c2ccccc2C1=O)N1CCN(Cc2ccc(Cl)cc2Cl)CC1 | -5.28%
25 | O=C(Nc1cccc(NC(=O)c2ccco2)c1)c1ccco1 | 1.7%
26 | COCCO/C(O)=C1/C(C)=NC2=C(C(=O)CC(C)(C)C2)C1c1ccc(Br)cc1 (centres unmarked) | -3.14%

Row | SMILES | % Inhibition @ 10 uM
27 | O=C(c1cc(-c2ccc(Br)cc2)nc2ccccc12)N1CCOCC1 | -0.251%
28 | COc1ccc(S(=O)(=O)N2CCN(C(=O)c3ccc(OC)c(OC)c3)CC2)cc1 | 2.94%
29 | Cn1nc(CC(=O)NC2CCCCCC2)c2ccccc2c1=O | 2.8%
30 | O=C(CCNc1c(N2CCCC2)c(=O)c1=O)NCCc1ccc(Cl)cc1 | -3.51%
31 | Cc1ccc(NC(=O)c2c(C)nc3ccccn23)cc1 | -1.75%
32 | CCS(=O)(=O)N1CCC(C(=O)N2CCN(Cc3ccccc3)CC2)CC1 | 3.79%
33 | CCn1cc(CCC(=O)NCCc2ccccc2)c2ccccc21 | 3.54%
34 | COc1cc(C(=O)Nc2c(C(=O)c3ccccc3)oc3ccccc23)cc(OC)c1OC | -1.11%
35 | CC(=O)C1=C(O)C(=O)N(c2ccc(O)cc2)C1c1ccc(F)cc1 (centres unmarked) | 0.993%
36 | CCOC(=O)N1CCN(CC2CCCCC2)CC1 | 1.08%
37 | Cc1ccc(Cn2nnc3c(=O)n(CC(=O)N4CCOCC4)cnc32)cc1 | -0.644%
38 | CCOC(=O)c1sc(NC(=O)C2COc3ccccc3O2)c(C(=O)OCC)c1C (centres unmarked) | 2.92%
39 | CCOc1ccccc1C(=O)Nc1sc(C)c(C)c1C#N | -0.736%
40 | CN1C(=O)C2(C(C#N)=C(N)OC3=C2C(=O)CC(C)(C)C3)c2cc(Br)ccc21 (centres unmarked) | -0.864%
41 | C=CCNc1oc(/C=C/c2cc(OC)c(OC)c(OC)c2)nc1C#N | -0.808%
42 | CN(C)CCNc1ncnc2[nH]cnc12 | -1.52%
43 | N#Cc1ccc(-c2ccc(OCC(=O)Nc3ccc(Br)cn3)cc2)cc1 | -1.88%
44 | CCOc1ccc2oc(=O)cc(CN3CCN(Cc4ccccc4)CC3)c2c1 | -3.49%
45 | Cc1c(Cl)cccc1N1C(=O)C2C3C=CC(O3)C2C1=O (centres unmarked) | 4.98%
46 | CCc1ccc(-c2cc3c(=O)n(CC(=O)N4CCC5(CC4)OCCO5)nc(C)n3n2)cc1 | -2.85%
47 | Cc1onc(-c2ccccc2)c1C(=O)NCc1ccc(F)cc1 | -2.6%
48 | CCc1ccccc1NC(=O)c1ccc(Cl)cc1 | -3.65%
49 | COc1ccc(-c2cc(C(=O)Nc3ccc4c(c3)OCO4)c3ccccc3n2)cc1OC | 2.82%
50 | Cc1cc(C)c2c(N)c(C(=O)O)sc2n1 | 13.2%
51 | COCCNC(=S)N1CCc2cc(OC)c(OC)cc2C1COc1ccc(F)cc1 (centres unmarked) | -0.363%
52 | CCCN(CCC)C(=O)c1c(C)nn(-c2ccc(C)cc2)c1-n1cccc1 | -7.05%

Row | SMILES | % Inhibition @ 10 uM
53 | O=C(NCCC1=CCCCC1)C1CCN(c2cnccn2)CC1 | -0.946%
54 | CCN(CC)C(=O)C1CCCN(CCc2ccccc2)C1 (centres unmarked) | -3.15%
55 | CCC(Cc1ccccc1)NC(=O)Cn1ncc2c3ccccc3n(C)c2c1=O (centres unmarked) | -0.23%
56 | Cc1cc(=O)n2c(n1)CC(c1ccccc1)=N2 | 3.83%
57 | CCOC(=O)N1CCN(C(=O)CSc2nnc(-c3ccccc3)o2)CC1 | 0.738%
58 | N#CC1=C(N)Oc2c(O)nc(O)nc2C1c1ccc([N+](=O)[O-])cc1 (centres unmarked) | 1.7%
59 | CC(C)C1=NN2C(=N)/C(=C/c3cccs3)C(=O)N=C2S1 | -2.87%
60 | COc1ccc(Cl)cc1NC(=O)CN(C1CCCCC1)S(C)(=O)=O | -1.51%
61 | N#CC1=C(N)Oc2[nH]nc(-c3ccc(Br)cc3)c2C1c1cccs1 (centres unmarked) | 5.67%
62 | CC1=C(C(=O)Nc2cccnc2)C(c2cccs2)n2nc(SCc3ccccc3)nc2N1 (centres unmarked) | -1.2%
63 | Cc1ccc(S(=O)(=O)NC2(C(F)(F)F)NC(=O)N(C)C2=O)cc1 (centres unmarked) | 0.221%
64 | O=c1ccc2ccc3occc3c2o1 | -0.502%
65 | CCOc1ccc(C(=O)Nc2ccc(OC)cc2OC)cc1 | 4.53%
66 | COCc1cc(C)nc2sc(C(=O)N(Cc3ccccc3)Cc3ccccc3)c(N)c12 | 2.7%
67 | CCOc1cc(/C=N/N=C(\N)c2nonc2N)cc(Br)c1O | 0.503%
68 | COc1ccc(-n2c(C)cc(/C=C3\C(=N)N4N=C(S(C)(=O)=O)SC4=NC3=O)c2C)cc1 | -1.54%
69 | O=C(Cn1ncn2nc(-c3ccco3)cc2c1=O)NCc1ccc2c(c1)OCO2 | 0.623%
70 | COc1ccc(CNC(=O)c2c(OC)cccc2OC)cc1 | 1.96%
71 | CC(C)Cc1ccc(S(=O)(=O)N2CCc3ccccc3C2)cc1 | 0.457%
72 | Cc1cc(C)c2nc(N3CCCC(C(=O)NCc4ccco4)C3)sc2c1 (centres unmarked) | 3.4%
73 | CCCCN(C)C(=O)c1cc(-c2ccc(OC)cc2)[nH]n1 | 2.28%
74 | O=C1C=CC(=NOC(=O)c2ccc(Cl)cc2)C=C1 | -1.6%
75 | Cc1cccc(C2=N/C(=C\c3ccccc3C(F)(F)F)C(=O)O2)c1 | 6.56%
76 | Cc1ccc(C2CC(=O)NC(=O)S2)cc1 (centres unmarked) | 8.63%
77 | O=C(O)/C=C/c1ccc(-c2cccc(C(F)(F)F)c2)o1 | 3.13%
78 | CCCOc1ccccc1C1NC(=O)NC(C)=C1C(=O)OCCc1ccccc1 (centres unmarked) | 4.1%

Row | SMILES | % Inhibition @ 10 uM
79 | O=C(Cn1ncc2c3ccccc3n(Cc3ccccc3)c2c1=O)N1CCN(Cc2ccccc2)CC1 | 4.95%
80 | Cn1cc(C2C(=O)NC(c3ccccc3)=NN2C(=O)c2ccccc2)c2ccccc21 (centres unmarked) | 1.15%
81 | O=C(Cn1ncc2c(=O)oc3ccccc3c21)N1CCCN(Cc2ccccc2F)C1 | -2.38%
82 | O=C1CC(C(=O)NCC2OCCc3ccccc32)C2(CCCCC2)O1 (centres unmarked) | -2.14%
83 | CC(C)(C)NCC(O)COc1ccc2ccccc2c1 (centres unmarked) | -0.424%
84 | C=CCOc1ccccc1CN1CCCCC1C(=O)OCC (centres unmarked) | -4.75%
85 | Cc1ccc(-n2nnc3c(=O)n(CC(=O)NCC4CCCO4)cnc32)cc1 (centres unmarked) | 1.24%
86 | CCOC(=O)C1=C(N)N2C(=O)C(C)SC2=C(C(=O)OC)C1c1ccccc1OC (centres unmarked) | -0.703%
87 | C1=CC2CC1CC2CN1CCN(c2ccccc2)CC1 (centres unmarked) | 3.24%
88 | Cc1ccc(S(=O)(=O)/N=C(\NCC(=O)O)c2ccccc2)cc1 | 1.25%
89 | N#CC1=C(N)SC(N)=C(C#N)C1c1cccc2ccccc12 | 47%
90 | Cc1cccc(NC(=O)c2cccc(S(=O)(=O)Nc3ccccc3C(=O)O)c2)c1 | 6.31%
91 | CCN1C(=O)N/C(=C/c2cc(C)n(-c3ccc(C)cn3)c2C)C1=O | -10.1%
92 | Cc1nn(CCCC(=O)NCCc2ccc(Cl)cc2)c(=O)c2cc3sccc3n12 | 1.8%
93 | COC(=O)c1nnn(-c2ccccc2F)c1N | -0.92%
94 | OCCOCCN1CCN(CC2CCCCC2)CC1 | -0.292%
95 | Cc1ccc(N(CC(=O)N2CCCC2)S(C)(=O)=O)cc1 | -3.39%
96 | Cc1ccc(C)c(S(=O)(=O)NC(C)C(=O)Nc2ccc(F)c(Cl)c2)c1 (centres unmarked) | -2.76%
97 | COc1ccc(-c2cc(C(=O)NCCCn3ccnc3)no2)cc1 | -4.07%
98 | O=C(O)c1cccc(NC(=O)c2cc([N+](=O)[O-])cc([N+](=O)[O-])c2)c1 | -0.0404%
99 | N#CC1=C(N)Oc2cc(N)ccc2C1c1ccc2ccccc2c1 (centres unmarked) | -1.38%
100 | c1ccc2sc(-c3ccc4c(c3)OCO4)nc2c1 | -0.546%
101 | C=CCN1C(=O)S/C(=C/c2ccc(-c3ccc(C(C)=O)cc3)o2)C1=O | -4.62%
